Common to all, as to experiment: glycan array binding signal (z-score within array); higher = stronger binding
Settings in all cases: glycan notation: IUPAC condensed, linker removed

For experiment [1], the target named is Gal(b1-4)GlcNAc(b1-2)[Gal(b1-4)GlcNAc(b1-6)]Man(a1-6)[GlcNAc(b1-4)][Gal(b1-4)GlcNAc(b1-2)Man(a1-3)]Man(b1-4)GlcNAc(b1-4)GlcNAc. The procedure, abridged:
(§1)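 Arrays were curated from the Consortium for Functional Glycomics database, 3228 in total, and kept only where the protein sequence was available. Binding is expressed as a within-array Z-score. This score was averaged across arrays of the same protein sequence at different concentrations or buffers and across linkers, and negative values can be read as non-binding.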

For experiment [2], the target named is Gal(b1-4)GlcNAc(b1-2)[Gal(b1-4)GlcNAc(b1-6)]Man(a1-6)[GlcNAc(b1-4)][Gal(b1-4)GlcNAc(b1-2)[Gal(b1-4)GlcNAc(b1-4)]Man(a1-3)]Man(b1-4)GlcNAc(b1-4)[Fuc(a1-6)]GlcNAc. The procedure, abridged: as §1
Experiment [3] deals with Gal(b1-4)GlcNAc(b1-3)Gal(b1-3)GalNAc. Put shortly: as §1
Experiment [4] concerns the target Gal(b1-4)GlcNAc(b1-3)Gal(b1-3)GlcNAc. The procedure, abridged: as §1
Experiment [5] concerns the target Gal(b1-4)GlcNAc(b1-3)Gal(b1-4)Glc. Put shortly: as §1
Experiment [6] concerns the target Gal(b1-4)GlcNAc(b1-3)Gal(b1-4)GlcNAc. The procedure, abridged:
as §1

The target of experiment [7] is Gal(b1-4)GlcNAc(b1-3)Gal(b1-4)GlcNAc(b1-2)Man(a1-3)[Gal(b1-4)GlcNAc(b1-3)Gal(b1-4)GlcNAc(b1-2)Man(a1-6)]Man(b1-4)GlcNAc(b1-4)GlcNAc. The procedure, abridged:
as §1

Experiment [8] deals with Gal(b1-4)GlcNAc(b1-3)Gal(b1-4)GlcNAc(b1-2)Man(a1-3)[Gal(b1-4)GlcNAc(b1-3)Gal(b1-4)GlcNAc(b1-2)Man(a1-6)]Man(b1-4)GlcNAc(b1-4)[Fuc(a1-6)]GlcNAc. Put shortly:
as §1

The target of experiment [9] is Gal(b1-4)GlcNAc(b1-3)Gal(b1-4)GlcNAc(b1-2)[Gal(b1-4)GlcNAc(b1-3)Gal(b1-4)GlcNAc(b1-6)]Man(a1-6)[Gal(b1-4)GlcNAc(b1-3)Gal(b1-4)GlcNAc(b1-2)Man(a1-3)]Man(b1-4)GlcNAc(b1-4)GlcNAc. The procedure, abridged:
as §1

The target of experiment [10] is Gal(b1-4)GlcNAc(b1-3)Gal(b1-4)GlcNAc(b1-2)[Gal(b1-4)GlcNAc(b1-3)Gal(b1-4)GlcNAc(b1-6)]Man(a1-6)[Gal(b1-4)GlcNAc(b1-3)Gal(b1-4)GlcNAc(b1-2)Man(a1-3)]Man(b1-4)GlcNAc(b1-4)[Fuc(a1-6)]GlcNAc. The procedure, abridged:
as §1

Experiment [11] addresses Gal(b1-4)GlcNAc(b1-3)Gal(b1-4)GlcNAc(b1-3)Gal(b1-4)GlcNAc. The procedure, abridged: as §1
For experiment [12], the target named is Gal(b1-4)GlcNAc(b1-3)Gal(b1-4)GlcNAc(b1-3)Gal(b1-4)GlcNAc(b1-2)Man(a1-3)[Gal(b1-4)GlcNAc(b1-3)Gal(b1-4)GlcNAc(b1-3)Gal(b1-4)GlcNAc(b1-2)Man(a1-6)]Man(b1-4)GlcNAc(b1-4)GlcNAc. The procedure, abridged: as §1
Experiment [13] has as its target Gal(b1-4)GlcNAc(b1-3)Gal(b1-4)GlcNAc(b1-3)Gal(b1-4)GlcNAc(b1-2)Man(a1-3)[Gal(b1-4)GlcNAc(b1-3)Gal(b1-4)GlcNAc(b1-3)Gal(b1-4)GlcNAc(b1-2)Man(a1-6)]Man(b1-4)GlcNAc(b1-4)[Fuc(a1-6)]GlcNAc. Put shortly: as §1
Experiment [14] deals with Gal(b1-4)GlcNAc(b1-3)Gal(b1-4)GlcNAc(b1-3)Gal(b1-4)GlcNAc(b1-2)[Gal(b1-4)GlcNAc(b1-3)Gal(b1-4)GlcNAc(b1-3)Gal(b1-4)GlcNAc(b1-6)]Man(a1-6)[Gal(b1-4)GlcNAc(b1-3)Gal(b1-4)GlcNAc(b1-3)Gal(b1-4)GlcNAc(b1-2)Man(a1-3)]Man(b1-4)GlcNAc(b1-4)[Fuc(a1-6)]GlcNAc. The procedure, abridged:
as §1

Experiment [15] addresses Gal(b1-4)GlcNAc(b1-3)Gal(b1-4)GlcNAc(b1-3)Gal(b1-4)GlcNAc(b1-3)Gal(b1-4)GlcNAc(b1-2)Man(a1-3)[Gal(b1-4)GlcNAc(b1-3)Gal(b1-4)GlcNAc(b1-3)Gal(b1-4)GlcNAc(b1-3)Gal(b1-4)GlcNAc(b1-2)Man(a1-6)]Man(b1-4)GlcNAc(b1-4)GlcNAc. The procedure, abridged: as §1
The target of experiment [16] is Gal(b1-4)GlcNAc(b1-3)Gal(b1-4)GlcNAc(b1-3)Gal(b1-4)GlcNAc(b1-3)Gal(b1-4)GlcNAc(b1-2)Man(a1-3)[Gal(b1-4)GlcNAc(b1-3)Gal(b1-4)GlcNAc(b1-3)Gal(b1-4)GlcNAc(b1-3)Gal(b1-4)GlcNAc(b1-2)Man(a1-6)]Man(b1-4)GlcNAc(b1-4)[Fuc(a1-6)]GlcNAc. Put shortly:
as §1

Experiment [17] addresses Gal(b1-4)GlcNAc(b1-3)Gal(b1-4)GlcNAc(b1-3)Gal(b1-4)GlcNAc(b1-3)Gal(b1-4)GlcNAc(b1-2)[Gal(b1-4)GlcNAc(b1-3)Gal(b1-4)GlcNAc(b1-3)Gal(b1-4)GlcNAc(b1-3)Gal(b1-4)GlcNAc(b1-6)]Man(a1-6)[Gal(b1-4)GlcNAc(b1-3)Gal(b1-4)GlcNAc(b1-3)Gal(b1-4)GlcNAc(b1-3)Gal(b1-4)GlcNAc(b1-2)Man(a1-3)]Man(b1-4)GlcNAc(b1-4)[Fuc(a1-6)]GlcNAc. Put shortly:
as §1

For experiment [18], the target named is Gal(b1-4)GlcNAc(b1-3)Gal(b1-4)GlcNAc(b1-3)Gal(b1-4)GlcNAc(b1-3)Gal(b1-4)GlcNAc(b1-3)Gal(b1-4)GlcNAc(b1-2)Man(a1-3)[Gal(b1-4)GlcNAc(b1-3)Gal(b1-4)GlcNAc(b1-3)Gal(b1-4)GlcNAc(b1-3)Gal(b1-4)GlcNAc(b1-3)Gal(b1-4)GlcNAc(b1-2)Man(a1-6)]Man(b1-4)GlcNAc(b1-4)GlcNAc. Put shortly:
as §1

Experiment [19] concerns the target Gal(b1-4)GlcNAc(b1-3)Gal(b1-4)GlcNAc(b1-3)Gal(b1-4)GlcNAc(b1-3)Gal(b1-4)GlcNAc(b1-3)Gal(b1-4)GlcNAc(b1-2)Man(a1-3)[Gal(b1-4)GlcNAc(b1-3)Gal(b1-4)GlcNAc(b1-3)Gal(b1-4)GlcNAc(b1-3)Gal(b1-4)GlcNAc(b1-3)Gal(b1-4)GlcNAc(b1-2)Man(a1-6)]Man(b1-4)GlcNAc(b1-4)[Fuc(a1-6)]GlcNAc. The procedure, abridged:
as §1

Experiment [20] addresses Gal(b1-4)GlcNAc(b1-3)Gal(b1-4)GlcNAc(b1-3)Gal(b1-4)GlcNAc(b1-3)Gal(b1-4)GlcNAc(b1-3)Gal(b1-4)GlcNAc(b1-2)[Gal(b1-4)GlcNAc(b1-3)Gal(b1-4)GlcNAc(b1-3)Gal(b1-4)GlcNAc(b1-3)Gal(b1-4)GlcNAc(b1-3)Gal(b1-4)GlcNAc(b1-6)]Man(a1-6)[Gal(b1-4)GlcNAc(b1-3)Gal(b1-4)GlcNAc(b1-3)Gal(b1-4)GlcNAc(b1-3)Gal(b1-4)GlcNAc(b1-3)Gal(b1-4)GlcNAc(b1-2)Man(a1-3)]Man(b1-4)GlcNAc(b1-4)[Fuc(a1-6)]GlcNAc. The procedure, abridged: as §1

The target in experiment [21] is Gal(b1-4)GlcNAc(b1-3)Gal(b1-4)GlcNAc(b1-3)Gal(b1-4)GlcNAc(b1-3)Gal(b1-4)GlcNAc(b1-3)Gal(b1-4)GlcNAc(b1-3)Gal(b1-4)GlcNAc(b1-2)Man(a1-3)[Gal(b1-4)GlcNAc(b1-3)Gal(b1-4)GlcNAc(b1-3)Gal(b1-4)GlcNAc(b1-3)Gal(b1-4)GlcNAc(b1-3)Gal(b1-4)GlcNAc(b1-3)Gal(b1-4)GlcNAc(b1-2)Man(a1-6)]Man(b1-4)GlcNAc(b1-4)GlcNAc. The procedure, abridged:
as §1

The target of experiment [22] is Gal(b1-4)GlcNAc(b1-3)Gal(b1-4)GlcNAc(b1-3)GalNAc. The procedure, abridged:
as §1

The target in experiment [23] is Gal(b1-4)GlcNAc(b1-3)Gal(b1-4)GlcNAc(b1-3)[Gal(b1-4)GlcNAc(b1-3)Gal(b1-4)GlcNAc(b1-6)]GalNAc. Put shortly: as §1

The text below walks through data of the supplement of paper PMC8728848.

The other results are listed elsewhere or left out.

B1: B725 (Bifidobacterium sp) (protein)
chain: MNNTTRAVIATAAIGALLIPLAGCGNTTTSSGKTELTVWSWDASIDRAAKSFMKANPDITVKVSNVGSTEETYTALNNAAQAGSGLPDVTLIEYLAIPQFVHSDTLMDLSKVYNTAKLKDTFTPGTWNSVNINGGLYAMPADSGPMAYFYDKDVFDKAGISEPPTTWDEFYEDAKKIRATGSYITSDSGDAGLFNAMMWAMGGHAYKLNDDKLTINIAKDKGAQRFMDLWQKMRDEDLIDVHTKTWTDDWMKSLGDGSIASLISGAWMANNLLQGVPQATGKFRVALLPTIDGTPINGEYGGSGLAITKKIPDGKLDAAKKFVEYVTTNDEGIDARVSNGSFPATTKTLNQKDFLAKTTLRNTDGSDNEFFGGQKYNEIFSQAAKDVTGKWEFLPFEPYARSVYNDNMGSFFAGKTSFRTAADNWQKALKDYAKDQGFTVQ
Turning to B1, the “glycan array binding signal (z-score)” value is -0.208 in experiment [1]; -0.229 in [2]; -0.188 in [3]; 2.17 in [4]; 6.34 in experiment [5]; 3.29 in [6]. For the same molecule, the “glycan array binding signal (z-score)” value in [7] was 1.67; in [8], 2.27; in [9], 0.832; in experiment [10], 2.27; in experiment [11], 6.94; in experiment [12] it was 5.11. In addition, the “glycan array binding signal (z-score)” value in experiment [13] stood at 4.38; in [14], 7.51; in experiment [15], 5.3; in experiment [16], 4.85; in experiment [17] it was 6.73; in [18] it was 2.12. Further, the “glycan array binding signal (z-score)” value amounted to 4 in experiment [19]; 5.49 in experiment [20]; 8.21 in experiment [21]; 0.618 in experiment [22]; 1.47 in experiment [23].
